Measured values reported in PubChem BioAssay AID2060889 (Molecular Pharmacology Branch, DTP, NCI, 2025).
A number of entries come with more than one value. They are shown here; other results are not. An entry can have further records. Values that stand side by side are repeated measurements across runs, samples, wells, individuals or studies. A date in brackets names the month of the test. Marks such as (2×) count equal records among those shown.

Test system: LG0567-F671-PDC complex spheroids viability
Experiment: Anticancer human tumor LG0567-F671-PDC patient-derived lung adenocarcinoma cell line growth inhibition [RAS]
Details: for viability, T/C: stronger effect = lower value; for IC50: compound alone
From the text: RAS pathway inhibitors in Combinations in Complex Spheroids
A high-throughput screen of multi-cell type tumor spheroids was designed to identify active combinations of RAS pathway inhibitors and targeted small molecules. Complex spheroids include a stromal component modeled by human endothelial cells (HUVEC) and fibroblasts modeled by human mesenchymal stem cells (MSCs). The concentration ranges selected for each drug and investigational agent were based upon clinically achievable concentrations if the clinical Cmax of the agent was known.
Compounds. The drugs and investigational agents: abemaciclib (NSC768073), cobimetinib (NSC768068), divarasib (GDC6063, NSC841802), docetaxel (NSC628503), GDC-1971 (RLY-1971, NSC841576), gemcitabine (NSC613327), inavolisib (NSC800729), ipatasertib (NSC767898), KB-0742 (NSC834161), MRTX-1133 (NSC836407), osimertinib (NSC779217), RMC-4630 (NSC839698), RMC-6236 (NSC851965), RMC-6291 (NSC852671), Ro-3306 (NSC812927), sapanisertib (NSC764658), SN-38 (NSC673596), staurosporine (NSC755774), SY5609 (NSC837396), and tovorafenib (DAY101, NSC766906), were obtained from the National Cancer Institute (NCI) Developmental Therapeutics Program Chemical Repository. The FDA-approved anticancer drug set is available from the NCI Developmental Therapeutics Program. […] The stock solutions were prepared in dimethyl sulfoxide (DMSO, Sigma-Aldrich, St. Louis, MO, cat. D2650) at 800-fold the tested concentration and stored at -70 degrees C prior to their use. All drugs and investigational agents were tested over a range starting from a high concentration at or near the clinical Cmax and decreasing in half-log increments. If the clinical Cmax for an agent had not been determined, the highest concentration tested was 10 microM.
Cell Culture. All cells were maintained in an incubator at 37 degrees C and 5% CO2 with 95% humidity. The PDC lines were cultured according to standard operating procedures established by the NCI PDMR. All PDCs were thawed and cultured in Matrigel-coated flasks prepared with a working solution of 1X Ham's F-12 nutrient mix, without supplementation (Invitrogen, Waltham, MA, cat. 11765054), 100 U/mL penicillin-streptomycin (Invitrogen, cat. 15140122), and 2.5% Matrigel (Corning Inc., Corning, NY, cat. 354248) for the first three passages. The 362531-283-R-J2-PDC and 782815-120-R-J1-PDC lines were cultured in 6C/Colon 1B media, which includes advanced DMEM/F-12 (Thermo Fisher Scientific, cat. 12634028), 10 mM HEPES (Thermo Fisher Scientific, cat. 15630080), 1X GlutaMAX supplement (Thermo Fisher Scientific, cat. 35050061), 0.1 mg/mL primocin (InvivoGen, San Diego, CA, cat. ant-pm-2), 10% defined fetal bovine serum, heat inactivated (HyClone Laboratories Inc., Logan, UT, cat. SH30070.03HI), 50% L-WRN conditioned media (ATCC, cat. CRL-3276), 1.25 mM N-Acetyl-L-cysteine (Sigma-Aldrich, cat. A9165), 10 mM nicotinamide (Sigma-Aldrich, cat. N0636), 1X B-27 supplement (Thermo Fisher Scientific, cat. 17504044), 1X N-2 supplement (Thermo Fisher Scientific, cat. 17502048), 50 ng/mL human EGF (Thermo Fisher Scientific, cat. PHG0311), and 10 microM Y-27632 dihydrochloride (Tocris Bioscience, cat. 1254). The K12877-001-R-J1-PDC line was cultured in 6I media, which includes all 6C/Colon 1B media plus 10 ng/mL human FGF-10 (PeproTech, cat. 100-26), 1 ng/mL human FGF-2 (PeproTech, cat. 100-18B), 1 µM prostaglandin E2 (Tocris Bioscience, cat. 2296), […] hydrocortisone (Sigma-Aldrich, cat. H4001), and […] bovine insulin (Sigma-Aldrich, cat. I6634). The K86415-001-R-J1-PDC line was cultured in 6D media, which includes all 6C/Colon 1B media components minus the L-WRN conditioned media. The 485176-168-R4-J1-PDC was cultured in PANC media, which includes all 6C/Colon 1B media plus 100 ng/mL human FGF-10 (PeproTech, cat. 100-26), 500 nM SB-431542 (Selleckchem, cat. S1067), and 10 nM gastrin (Tocris Bioscience, cat. 3006). […]
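Also: spheroids exposed to compound for seven days before readout.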
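For IC50 in this document: luminescence signal used as a proxy for viable cells.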

C=CC(=O)Nc1cc(Nc2nccc(-c3cn(C)c4ccccc34)n2)c(OC)cc1N(C)CCN(C)C
viability, T/C (compound alone 0.00316 µM): 102%, 116% [2024-08] and 93%, 88.6% [2024-09]

CC(C)NCC(C(=O)N1CCN(c2ncnc3c2C(C)CC3O)CC1)c1ccc(Cl)cc1 (configuration not stated)
viability, T/C (compound alone 3.16 µM): 59.6%, 91.6% [2024-08] and 62.5%, 65.7% [2024-09]

CC1(O)CCCC1n1c(=O)c(C(F)F)cc2cnc(NC3CCN(S(C)(=O)=O)CC3)nc21 (configuration not stated)
IC50: 9.26 µM, > 10 µM [2024-08] and 6.84 µM, 6.63 µM [2024-09]

CC1(C)CCC(Nc2ncc(C(F)(F)F)c(-c3c[nH]c4c(P(C)(C)=O)c(C#N)ccc34)n2)CN1 (configuration not stated)
IC50: > 300 nM (2×) [2024-08] and 12.3 nM, > 300 nM [2024-09] | viability, T/C (compound alone 0.000949 µM): 71.2%, 86.8% [2024-08] and 59.4%, 70% [2024-09]

CC(C)n1nc(-c2ccc3oc(N)nc3c2)c2c(N)ncnc21
IC50: > 100 nM, 45 nM [2024-08] and 44.7 nM, 44.1 nM [2024-09] | viability, T/C (compound alone 0.1 µM): 96%, 37.3% [2024-08] and 36.8%, 34.5% [2024-09]
